The other results are listed elsewhere or left out.
Molecular target: no compound (DMSO)
Assay: log2 fold change of degron read counts, EGFP-low vs EGFP+ sorted cells; higher = lower degron-EGFP level without compound (poor expression or instability)
Conditions: compound: DMSO control; 18 h
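Note: jurkat cells carrying a lentiviral library of mutant zinc finger degrons fused to EGFP plus mCherry, mCherry+ cells FACS sorted, degron abundance counted by next-generation sequencing.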

Sequence	log2 fold change of degron read counts
FHCPICGRRFTQKGNLLRHIKL	-1.39
FICSVCGHMFTQKGNLLRHIKL	-0.303
FSCEICGAEFTQKGNLLRHIKL	-1.72
FCCSVCGHLFTQKGNLLRHIKL	-0.0677
FGCNQCGHHFTQKGNLLRHIKL	1.27
FLCNQCGRFFTQKGNLLRHIKL	1.18
LYCPICGFVCTQKGNLLRHIKL	1.3
FKCNQCGAAFTQKGNLLRHIKL	-1.46
LACNQCGFQCTQKGNLLRHIKL	-0.0882
FWCDQCGATFTQKGNLLRHIKL	-0.626
FCCPVCGAMFTQKGNLLRHIKL	0.0247
LRCEICGFECTQKGNLLRHIKL	-1.09
FGCDICGAVFTQKGNLLRHIKL	-0.972
FVCNICGAMFTQKGNLLRHIKL	0.0496
FACNQCGAGFTQKGNLLRHIKL	0.419
FLCPQCGAGFTQKGNLLRHIKL	-0.841

Sequence	log2 fold change of degron read counts
FMCNQCGRPFTQKGNLLRHIKL	-0.392
FTCNVCGAVFTQKGNLLRHIKL	-1.31
FICEICGRDFTQKGNLLRHIKL	-1.26
FRCNVCGAHFTQKGNLLRHIKL	-0.796
FDCNQCGHNFTQKGNLLRHIKL	0.63
FQCEICGADFTQKGNLLRHIKL	-1.98
FGCDQCGADFTQKGNLLRHIKL	-1.63
FKCDVCGANFTQKGNLLRHIKL	-2.01
FTCPQCGANFTQKGNLLRHIKL	-1.14
FKCNICGAFFTQKGNLLRHIKL	-1.38
FRCDQCGAPFTQKGNLLRHIKL	-1.13
FLCSVCGHYFTQKGNLLRHIKL	0.484
LKCPICGFDCTQKGNLLRHIKL	0.698
FCCDQCGATFTQKGNLLRHIKL	-1.67
LMCPICGFRCTQKGNLLRHIKL	0.69
FLCNVCGAKFTQKGNLLRHIKL	-0.566

— the supplement of paper PMC12645437, “Orthogonal IMiD-Degron Pairs Induce Selective Protein Degradation in Cells” (ACS Chemical Biology, 2025)
